Laboratory results reported in PubChem BioAssay AID504332 (National Center for Advancing Translational Sciences (NCATS), 2011).
In all, about 350,000 compounds went through this assay and about 31,000 (8.9%) were called active. Inconclusive results, whose numbers are uncertain, are shown with a selection of clear calls. Calls come from the whole dose curve; as a rule, active = well fitted inhibition curve with a large enough effect; inconclusive = small, poorly fitted or top-dose-only effect; inactive = no such curve, though single readings can be large or run the other way. Where the call is inconclusive, the potency comes from a doubtful curve fit.

The compounds below were run against Histone-lysine N-methyltransferase EHMT2 (Homo sapiens) (UniProt Q96KQ7) (assay: qHTS Assay for Inhibitors of Histone Lysine Methyltransferase G9a). Settings: G9a H3K9 monomethylation, AlphaScreen, 2 h; activity, negative = inhibition: at 59 µM (top of the series) unless noted.
Sequence of UniProt Q96KQ7 (Q96KQ7 whole entry, looked up): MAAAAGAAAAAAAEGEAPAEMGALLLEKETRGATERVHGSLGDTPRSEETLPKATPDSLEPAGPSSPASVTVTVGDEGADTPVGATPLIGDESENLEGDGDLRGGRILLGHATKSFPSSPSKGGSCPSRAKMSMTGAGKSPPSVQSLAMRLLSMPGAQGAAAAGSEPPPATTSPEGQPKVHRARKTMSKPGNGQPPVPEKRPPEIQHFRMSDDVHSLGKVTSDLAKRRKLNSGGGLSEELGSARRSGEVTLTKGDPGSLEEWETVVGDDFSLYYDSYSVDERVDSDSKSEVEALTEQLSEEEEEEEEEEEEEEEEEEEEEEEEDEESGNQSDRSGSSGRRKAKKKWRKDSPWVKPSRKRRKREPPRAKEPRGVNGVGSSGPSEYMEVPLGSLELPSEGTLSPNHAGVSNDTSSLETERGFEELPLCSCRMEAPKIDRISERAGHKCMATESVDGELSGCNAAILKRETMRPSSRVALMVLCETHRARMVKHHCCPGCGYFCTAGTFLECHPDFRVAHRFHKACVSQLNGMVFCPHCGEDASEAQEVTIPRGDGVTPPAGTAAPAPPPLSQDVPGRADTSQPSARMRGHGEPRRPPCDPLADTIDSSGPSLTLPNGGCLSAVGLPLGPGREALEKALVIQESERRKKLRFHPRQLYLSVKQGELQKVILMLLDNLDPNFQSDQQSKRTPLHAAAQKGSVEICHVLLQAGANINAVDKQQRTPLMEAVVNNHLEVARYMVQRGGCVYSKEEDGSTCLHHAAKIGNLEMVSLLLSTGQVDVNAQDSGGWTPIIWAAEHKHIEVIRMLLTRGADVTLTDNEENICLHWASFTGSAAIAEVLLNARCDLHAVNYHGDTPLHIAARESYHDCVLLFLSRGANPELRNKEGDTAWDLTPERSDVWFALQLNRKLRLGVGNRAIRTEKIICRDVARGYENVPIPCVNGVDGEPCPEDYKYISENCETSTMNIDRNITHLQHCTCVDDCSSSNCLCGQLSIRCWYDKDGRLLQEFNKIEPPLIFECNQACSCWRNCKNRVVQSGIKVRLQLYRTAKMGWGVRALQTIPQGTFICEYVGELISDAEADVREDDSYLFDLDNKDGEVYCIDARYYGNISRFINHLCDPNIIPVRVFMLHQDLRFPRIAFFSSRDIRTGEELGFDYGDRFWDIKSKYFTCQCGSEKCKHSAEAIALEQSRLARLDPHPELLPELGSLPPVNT
Procedure, shortened: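 Methyltransferase reactions run at room temperature for 2 h (20 nM enzyme, 500 nM biotin-H3K9 peptide, 20 uM SAM) after a 15 min compound preincubation; product detected by AlphaScreen beads and anti-H3K9me1 antibody.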
% is set by controls: 0 for no effect and ±100 for the full control effect; potency is the fitted concentration of half-maximal effect; tags give direction and shape of the fitted curve.
Note: nearly all actives have a fitted effect of over 75% in size.

Question: How did the Potency turn out when `Oc1c(CN2CCCCC2)cc(COCc2ccccc2)c2cccnc12` was run?
Answer: inconclusive: 39.8 µM [inhibitor, single point]

Question: What about the activity, negative = inhibition of the same compound?
Answer: inactive: 7.5% [at 12.7 µM]

Question: With `NC(CO)c1cn([C@@H](CCC(=O)O)C(=O)N2CCNCC2)nn1` (stereo partly drawn) as the compound, how does the activity, negative = inhibition read?
Answer: inconclusive: -68.3% [inhibitor]

Question: How did the Potency turn out when `O=C(COC(=O)[C@@H]1CC(O)CN1S(=O)(=O)c1ccc([N+](=O)[O-])cc1)NC12CC3CC(CC(C3)C1)C2` (stereo partly drawn) was run?
Answer: active: 20 µM

Question: For `COc1ccc(N2CCN(C(=O)C3CCN(S(=O)(=O)c4c(C)noc4/C=C/N(C)C)CC3)CC2)cc1`, which Potency is on record?
Answer: inconclusive: 79.4 µM [inhibitor, single point]

Question: For `COc1ccc2c(c1)NC(c1ccc(Cl)cc1)=NC(c1cccs1)=N2`, which Potency is on record?
Answer: inconclusive: 5.62 µM [inhibitor, full curve]

Question: With `CCC(Nc1ccc(OC)cc1)C(=O)N/N=C/c1ccc([N+](=O)[O-])cc1` (stereo not drawn) as the compound, how does the Potency read?
Answer: inconclusive: 79.4 µM [inhibitor, partial curve, poor fit]

Question: `C=CCn1c(SCc2nc3ccccc3nc2C)nnc1-c1ccoc1C` was tested. Which Potency did it give?
Answer: inconclusive: 44.7 µM [inhibitor, partial curve]

Question: With `CCn1c2ccccc2n2c(=O)c(=O)n(CC(=O)N3CCN(c4ccccc4OC)CC3)nc12` as the compound, how does the “activity, negative = inhibition” value read?
Answer: inactive: 8.88% [at 102 µM]

Question: `CCOc1ccc(-c2[nH]ncc2Oc2ccccc2OCC)c(O)c1` was tested. Which “activity, negative = inhibition” value did it give?
Answer: inactive: 5.54%

Question: How did the Potency turn out when `Cn1c(Cn2nnc3ccccc32)nnc1SCC(N)=O` was run?
Answer: inconclusive: 0.158 µM [inhibitor, full curve, poor fit]

Question: `Cn1c(=O)c2nc3ccccc3nc2n(C)c1=O` was tested. Which Potency did it give?
Answer: inconclusive: 39.8 µM [inhibitor, single point]

Question: With `Cc1ccc(C)c(Cn2c(=O)n(Cc3ccccc3)c(=O)c3sc4ccccc4c32)c1` as the compound, how does the “activity, negative = inhibition” value read?
Answer: inactive: 16.5%

Question: With `CCn1c(C(=O)N2CCC(Cc3ccccc3)CC2)cc2sccc21` as the compound, how does the Potency read?
Answer: inconclusive: 0.251 µM [inhibitor, full curve, poor fit]

Question: For `COc1ccccc1N=C(C)C1=C(O)CSC1=O`, which Potency is on record?
Answer: inconclusive: 50.1 µM [inhibitor, partial curve]

Question: `Cc1ccc(S(=O)(=O)N/N=C\c2ccc([N+](=O)[O-])o2)cc1C` was tested. Which “activity, negative = inhibition” value did it give?
Answer: inactive: 79.4% [at 102 µM]

Question: `COC(=O)c1c(NC(=O)C2CCCCC2C(=O)O)sc2c1CCCCC2` (stereo not drawn) was tested. Which Potency did it give?
Answer: active: 31.6 µM

Question: With `CCOC(=O)c1oc2ccccc2c1CN1CCN(c2ccccc2)CC1` as the compound, how does the activity, negative = inhibition read?
Answer: inconclusive: -83.3% [inhibitor]

Question: `Cc1sc(NC(=O)Nc2ccccc2)c(C(N)=O)c1C` was tested. Which Potency did it give?
Answer: active: 8.91 µM

Question: For `O=C(O)c1cccc2c1C(=O)c1cccc3snc-2c13`, which Potency is on record?
Answer: active: 56.2 µM

Question: How did the “activity, negative = inhibition” value turn out when `COc1ccc(CCNCC(O)COc2ccc(Cl)cc2)cc1OC` (stereo not drawn) was run?
Answer: inactive: 19.4%

Question: `CCCNC(=O)C1=C(C)C(=O)OC12CCC(C)CC2` (stereo not drawn) was tested. Which Potency did it give?
Answer: inconclusive: 89.1 µM [inhibitor, single point]

Question: For `c1ccc(-c2nnc3sc(-c4ccncc4)nn23)cc1`, which activity, negative = inhibition is on record?
Answer: inactive: -4.02% [at 12.7 µM]

Question: How did the Potency turn out when `CCN(CC)C(=O)CC(c1cc(OC)c(OC)c(OC)c1)c1c(OC)cc(OC)c2c(-c3ccccc3)cc(=O)oc12` (stereo not drawn) was run?
Answer: inconclusive: 10 µM [inhibitor, single point]

Question: For `CC(C)(C)c1ccc(-c2nnc(-c3ccccc3NC(=O)c3cccc(C(F)(F)F)c3)o2)cc1`, which “activity, negative = inhibition” value is on record?
Answer: inactive: 8.71%

Question: With `Cc1cc(C)cc(NS(=O)(=O)c2ccc(-c3cc(C)no3)cc2)c1` as the compound, how does the Potency read?
Answer: inconclusive: 2.51 µM [inhibitor, partial curve, poor fit]

Question: Which Potency does the source give for `COc1ccc(-c2nc(CS(=O)CC(=O)NCc3cccnc3)c(C)o2)cc1OC` (stereo not drawn) here?
Answer: inconclusive: 89.1 µM [inhibitor, single point]

Question: With `Cc1ccc(CCNC(=O)c2ccc3c(c2)N(Cc2cc(C)ccc2C)C(=O)c2ccccc2S3=O)cc1` (stereo not drawn) as the compound, how does the “activity, negative = inhibition” value read?
Answer: inactive: -23.3%

Question: How did the Potency turn out when `Cc1cc(OCC(=O)N[C@@H](CSCc2ccccc2)C(=O)O)c2c(C)c(C)c(=O)oc2c1` was run?
Answer: inconclusive: 89.1 µM [inhibitor, single point]

Question: With `CC(=O)c1cccc(NC(=O)C(=O)Nc2cccc3ccccc23)c1` as the compound, how does the “activity, negative = inhibition” value read?
Answer: inactive: 9.33% [at 102 µM]

Question: For `CCCCOc1ccc(C(=O)Nn2cnnc2)cc1`, which Potency is on record?
Answer: inconclusive: 89.1 µM [inhibitor, single point]

Question: How did the Potency turn out when `O=C(COc1cccc(C(F)(F)F)c1)Nc1ccc(S(=O)(=O)N2CCCCC2)cc1` was run?
Answer: inconclusive: 10 µM [inhibitor, partial curve, poor fit]

Question: With `Cc1ccc(-c2nn3c(-c4ccco4)nnc3c3ccccc23)cc1S(=O)(=O)NCC1CCCO1` (stereo not drawn) as the compound, how does the Potency read?
Answer: active: 20 µM

Question: With `Cc1cccc(NC(=O)COC(=O)CSc2ccccc2)c1C` as the compound, how does the Potency read?
Answer: inconclusive: 3.98 µM [inhibitor, single point]

Question: How did the Potency turn out when `NC(=O)CSc1nc2scc(-c3ccco3)c2c(=O)n1-c1ccccc1` was run?
Answer: inconclusive: 3.98 µM [inhibitor, single point]

Question: `COc1cc(OC)cc(C(=O)NC(=S)N2CCN(c3ccc(C(F)(F)F)cc3[N+](=O)[O-])CC2)c1` was tested. Which Potency did it give?
Answer: inconclusive: 10 µM [inhibitor, partial curve, poor fit]

Question: How did the Potency turn out when `O=C(c1cc(C2CC2)on1)N1CCN(C(c2ccccc2)c2ccccc2)CC1` was run?
Answer: inconclusive: 35.5 µM [inhibitor, single point]

Question: Which Potency does the source give for `O=C(Cc1c[nH]c2ccccc12)OCCOC(=O)Cc1c[nH]c2ccccc12` here?
Answer: inconclusive: 39.8 µM [inhibitor, single point]

Question: Which activity, negative = inhibition does the source give for `COc1ccc2c(c1OC)C(=O)O[C@H]2C1c2c(cc3c(c2OC)OCO3)CCN1C` (stereo partly drawn) here?
Answer: inactive: -2.39% [at 2.33 µM]

Question: With `CCNC(=S)NNC(=O)c1cc(-c2cccnc2)nc2ccccc12` as the compound, how does the Potency read?
Answer: active: 44.7 µM

Question: With `CSc1nnc(C2CCN(CC(=O)Nc3ccccc3N3CCOCC3)CC2)n1C(C)C` as the compound, how does the “activity, negative = inhibition” value read?
Answer: inactive: -6.11% [at 102 µM]

Question: For `COc1ccc2c(c1)NC(c1ccc(F)cc1)=NC(c1ccc(F)cc1)=N2`, which Potency is on record?
Answer: inconclusive: 25.1 µM [inhibitor, partial curve, poor fit]

Question: How did the Potency turn out when `O=C(O)CCc1nn2cc(-c3ccccc3)nc2[nH]c1=O` was run?
Answer: inconclusive: 31.6 µM [inhibitor, single point]

Question: Which Potency does the source give for `CC(Sc1ccc([N+](=O)[O-])cn1)C(=O)Nc1nccs1` (stereo not drawn) here?
Answer: active: 7.94 µM

Question: With `CC(=O)N1N=C(c2cccs2)CC1c1ccc(C)o1` (stereo not drawn) as the compound, how does the Potency read?
Answer: inconclusive: 28.2 µM [inhibitor, partial curve]

Question: `COc1ccc(S(=O)(=O)N2CCc3ccccc32)cc1NC(C)=O` was tested. Which Potency did it give?
Answer: inconclusive: 17.8 µM [inhibitor, partial curve, poor fit]

Question: With `COc1ccc(-c2nnc3ccc(SCC(=O)NCc4ccco4)nn23)cc1` as the compound, how does the Potency read?
Answer: inconclusive: 56.2 µM [inhibitor, partial curve, poor fit]

Question: For `Oc1cccc(C(O)CNCc2ccc(OCc3ccc(Cl)cc3Cl)cc2)c1` (stereo not drawn), which “activity, negative = inhibition” value is on record?
Answer: inactive: -22.4% [at 102 µM]

Question: How did the activity, negative = inhibition turn out when `Cc1cc2occ(CC(=O)N(C)CC(=O)Nc3ccccc3C(F)(F)F)c2cc1C` was run?
Answer: inactive: -5.25% [at 2.33 µM]

Question: For `CC(C)c1[nH]nc2c1C1(CCN(Cc3ccccc3)CC1)C(C#N)=C(N)O2`, which Potency is on record?
Answer: inconclusive: 7.08 µM [inhibitor, partial curve, poor fit]

Question: With `O=C(Nc1ccccc1Cc1ccccc1)c1ccc2c(c1)SC1=NS(=O)(=O)CCN12` as the compound, how does the Potency read?
Answer: inconclusive: 28.2 µM [inhibitor, single point]

Question: Which “activity, negative = inhibition” value does the source give for `COc1ccc(Nc2ncnc3onc(C)c23)cc1Cl` here?
Answer: inactive: -5.03%

Question: How did the Potency turn out when `CC(OC(=O)/C=C/c1ccco1)C(=O)Nc1cccc([N+](=O)[O-])c1` (stereo not drawn) was run?
Answer: inconclusive: 28.2 µM [inhibitor, single point]

Question: With `CSc1ccc(S(=O)(=O)Nc2ccc3c(c2)OCCO3)cc1` as the compound, how does the “activity, negative = inhibition” value read?
Answer: inactive: 4.11% [at 102 µM]

Question: Which Potency does the source give for `O=C(O)CC/C(=N/NC(=O)c1cn(-c2ccccc2)nc1-c1ccccc1)C(=O)O` here?
Answer: active: 35.5 µM

Question: With `O=C(Cn1nc(Cc2cccnc2)c2ccccc2c1=O)N1CCN(c2ccc(F)cc2)CC1` as the compound, how does the Potency read?
Answer: inconclusive: 39.8 µM [inhibitor, single point]

Question: `COc1cccc(-c2csc(N3CCN(Cc4ccccc4)CC3)n2)c1` was tested. Which Potency did it give?
Answer: inconclusive: 25.1 µM [inhibitor, single point]

Question: For `Clc1ccc(C2=Nn3c(nnc3-c3n[nH]c4c3CCC4)SC2)cc1`, which Potency is on record?
Answer: inconclusive: 89.1 µM [inhibitor, single point]

Question: For `O=C(C1=C[C@@H](c2csc3ccccc23)C[C@@H](OCc2ccc(CO)cc2)O1)N1CCN(Cc2ccccc2)CC1`, which activity, negative = inhibition is on record?
Answer: inconclusive: -79.4% [inhibitor]

Question: Which Potency does the source give for `O=C(c1ccc(N2CCCC2)c([N+](=O)[O-])c1)N1CCN(S(=O)(=O)c2ccccc2)CC1` here?
Answer: inconclusive: 28.2 µM [inhibitor, partial curve]

Question: With `COc1cccc([C@@H]2Oc3ccc(OC)cc3C(=O)[C@H]2OC(=O)Nc2cc(OC)c(OC)c(OC)c2)c1` as the compound, how does the Potency read?
Answer: inconclusive: 79.4 µM [inhibitor, partial curve, poor fit]

Question: With `CCN=C(NCC)SC1CC(=O)N(c2cccc(OC)c2)C1=O` (stereo not drawn) as the compound, how does the “activity, negative = inhibition” value read?
Answer: inactive: -31.3% [at 102 µM]

Question: `CC(C(=O)NCC(=O)Nc1ccc(F)c(F)c1F)N1CCN(c2ccc(O)cc2)CC1` (stereo not drawn) was tested. Which Potency did it give?
Answer: active: 1.41 µM

Question: `Cc1c(C(O)CN2CCN(Cc3ccc4c(c3)OCO4)CC2)c2ccccc2n1C` (stereo not drawn) was tested. Which activity, negative = inhibition did it give?
Answer: inconclusive: -67.7% [inhibitor]

Question: Which Potency does the source give for `O=C(C1CCN(c2nnc(-n3cccc3)s2)CC1)N1CCN(Cc2ccc3c(c2)OCO3)CC1` here?
Answer: inconclusive: 50.1 µM [inhibitor, partial curve, poor fit]

Question: With `Cc1onc(-c2ccccc2)c1C(=O)N/N=C/c1cc(Br)c(O)c(Br)c1` as the compound, how does the Potency read?
Answer: inconclusive: 89.1 µM [inhibitor, single point]

Question: Which “activity, negative = inhibition” value does the source give for `Cc1ccc(NC(=O)[C@H](CSCc2ccccc2)N2Cc3ccccc3C2=O)cc1` here?
Answer: inactive: -6.56%

Question: For `O=C(O)c1cc2c(cc1Br)OCCCO2`, which Potency is on record?
Answer: inconclusive: 89.1 µM [inhibitor, single point]
